Some of the results follow. Values were computed here from the reads of four pooled replicates and scatter widely.
biological target: T1, Pho4 (S. cerevisiae) (UniProt P07270); experiment: relative binding free energy (BET-seq); higher = weaker binding; conditions: reference: library average
T1 sequence: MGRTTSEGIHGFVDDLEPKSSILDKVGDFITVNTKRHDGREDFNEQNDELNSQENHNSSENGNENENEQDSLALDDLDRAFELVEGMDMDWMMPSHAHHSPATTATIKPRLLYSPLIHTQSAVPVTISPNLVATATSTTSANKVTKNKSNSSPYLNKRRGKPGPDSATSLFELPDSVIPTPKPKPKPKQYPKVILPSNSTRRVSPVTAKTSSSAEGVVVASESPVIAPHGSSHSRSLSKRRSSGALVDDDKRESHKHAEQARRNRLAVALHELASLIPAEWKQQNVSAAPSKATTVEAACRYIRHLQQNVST

Sequence	relative binding free energy [kcal/mol]
ATGTGCACGTGGTTTT	-0.06
CGTTGCACGTGAGGTC	0.24
CGTTTCACGTGTGGGC	0.36
TCAGGCACGTGATAGT	-0.02
AAGCTCACGTGTGGTA	0.19
GTGCTCACGTGTGTAA	0.34
AGAAACACGTGATGGT	0.08
AATGTCACGTGGAGAT	0.11
AGTGTCACGTGTTGTG	0.12
TCTATCACGTGTGTTA	0.16
ATAAACACGTGTTTGA	-0.14
GGATGCACGTGTACTG	-0.01
TGGGACACGTGGGTAG	-0.01
TGTGACACGTGTTAGG	0.06
GTAGACACGTGTCTGT	0.06
TAAGTCACGTGTAGAA	0.11
CGTATCACGTGTGAGT	0.29
TGGGGCACGTGGTTGA	-0.06
AGTGGCACGTGTAGTT	-0.02
TAAGACACGTGTGTAG	0.13
AGTTGCACGTGGGGAT	-0.02
CTTGACACGTGCGCGG	0.03
AGGGACACGTGGAGGT	0.01

Sequence	relative binding free energy [kcal/mol]
AGGTCCACGTGGGTTT	-0.31
GTTTGCACGTGTTAGC	0.15
CGTGGCACGTGTTATG	-0.15
ACTGACACGTGGGAGG	-0.08
CTCTGCACGTGGTGTA	-0.1
AGGGGCACGTGTCTGG	-0.04
CTCGTCACGTGGAGTA	0.23
TTTAGCACGTGTAGAC	0.03
TGCATCACGTGTTTTG	0.12
AAGAACACGTGGTGTA	-0.04
GGGTCCACGTGTGGGT	0.1
TTTGTCACGTGGAGAG	0.15
GTTGACACGTGCCGGG	-0.06
TTGTCCACGTGGTTGT	-0.01
CTGCACACGTGGGTGT	-0.15
GATGACACGTGGTAGT	0.2
AGGTTCACGTGGGGCA	0.15
GGGCTCACGTGGTAGC	0.3
GTGGCCACGTGCAGTG	-0.07
TATTGCACGTGGTCTG	-0.23
TAGAACACGTGGGCTG	-0.06
AGTATCACGTGACTGT	0.27
TTGGGCACGTGCCGTT	-0.2

Sequence	relative binding free energy [kcal/mol]
TGTGGCACGTGGACCT	-0.05
TGACGCACGTGTAGGT	-0.17
TGTTGCACGTGTTCGT	0.02
AATATCACGTGTGGTC	0.16
TGGTCCACGTGGCGTG	-0.03
ACTTGCACGTGGGCGG	-0.16
ATTTACACGTGCTGGG	0.04
GGGGTCACGTGTTCAA	0.31
TGTGGCACGTGATTGA	0.1
GTGATCACGTGTTCTT	0.23
TCCTGCACGTGGGGTT	-0.19
CGGAGCACGTGGGTGG	-0.21
TTTGTCACGTGTCAAG	0
CGGGTCACGTGCTGAT	0.03
TGTCTCACGTGAAATT	0.32
TTTGGCACGTGCGTTT	-0.15
GAAGTCACGTGAGGGC	0.15
TGATTCACGTGTGACA	0.37
TAAATCACGTGTATAT	0.07
GGCGGCACGTGGGTTT	-0.05
GTTTGCACGTGACGGA	0.08
GGCGTCACGTGAGTTT	0.36
TTGAACACGTGATATG	0

Sequence	relative binding free energy [kcal/mol]
TTCTACACGTGTTGAG	0.06
CTTTTCACGTGTCAGG	0.26
GCTTGCACGTGGAGGT	0.07
CGTGTCACGTGTGCAT	0.06
AGAAACACGTGGATGG	0
ATCTTCACGTGGAGAG	0.29
GGGTACACGTGTCCGG	0.24
TATTGCACGTGTACTG	-0.01
GTGATCACGTGTGGGC	0.22
ACGGGCACGTGGTTCT	-0.08
TCATACACGTGGTGAG	0.03
ATTGTCACGTGATTAG	0.3
GTGTCCACGTGGATGT	-0.08
AGGTACACGTGTCGAT	0.09
CTGTGCACGTGAATGG	0.31
GTTTACACGTGATATA	0.25
TCGTGCACGTGAGCGG	0.19
GATTTCACGTGTCGGT	0.32
GATTTCACGTGGTTTT	0.34
CGTGTCACGTGGTTCA	0.05
GCAGTCACGTGGGGTT	-0.02
GGTGACACGTGGCAAT	0.1
GGCTTCACGTGGAGGT	0.2

Sequence	relative binding free energy [kcal/mol]
GGGTGCACGTGCACGT	-0.18
GGGGTCACGTGATGGT	0.38
ATTCTCACGTGTGGAG	0.15
AGTGGCACGTGGCAGC	-0.22
GGGCTCACGTGTGGCG	0.29
ATTGACACGTGTCGGT	-0.03
AGTTACACGTGTGAGC	0.16
ATAGTCACGTGCGGTT	0.13
ATTCCCACGTGTTTGG	0.06
GGTAACACGTGTTCGT	-0.01
TGATTCACGTGTGACT	0.3
TGGCACACGTGTGGCA	0.15
AGTGGCACGTGAAGCG	0.16
AACGGCACGTGTCTGG	0.19
TGTATCACGTGTACAT	0.09
TGATACACGTGGGAGG	0.02
ATTTTCACGTGCGCGA	0.33
ACGTGCACGTGAGGGT	0.13
TATTACACGTGGGTTA	-0.16
TGACTCACGTGAGTTT	0.32
GGGTACACGTGGCGAT	0.09
TAGGTCACGTGTTTGG	0.06
GGGAACACGTGTAGAG	0.06

— the BET-seq Pho4 binding data (Le et al. 2018)
